The structures appear in SMILES notation. The whole screen tested about 48,000 compounds, of which about 550 (1.1%) were called active. Another 4% or so got no clear call; they are omitted. Rule as the data show it: active = potency below about 15 µM; inconclusive = mostly about 16 µM to 33 µM; inactive = weaker than that. This is one part of the list.

60 compounds from PubChem BioAssay AID360 (National Center for Advancing Translational Sciences (NCATS), 2006) can be followed below.
Potency is read from the fitted curve at half-maximal effect.

For this experiment, the target named is Lysosomal acid glucosylceramidase (Homo sapiens) (UniProt P04062). The experiment is described as follows: Glucocerebrosidase.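 Also: the screen sought inhibitors.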 The settings on record: purified enzyme, resorufin glucoside fluorescence (screen aimed at inhibitors), 20 min. The method in brief: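 Normal human glucocerebrosidase (0.2 nM final) was assayed with resorufin β-D-glucopyranoside (30 uM final) in 50mM citric acid/KH2PO4, 10mM sodium taurocholate, 0.01% tween-20, pH 5.9. Compounds were titrated; fluorescence (Ex 548, Em 600) read after 20 min at RT.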
UniProt P04062, sequence (P04062 whole entry, looked up): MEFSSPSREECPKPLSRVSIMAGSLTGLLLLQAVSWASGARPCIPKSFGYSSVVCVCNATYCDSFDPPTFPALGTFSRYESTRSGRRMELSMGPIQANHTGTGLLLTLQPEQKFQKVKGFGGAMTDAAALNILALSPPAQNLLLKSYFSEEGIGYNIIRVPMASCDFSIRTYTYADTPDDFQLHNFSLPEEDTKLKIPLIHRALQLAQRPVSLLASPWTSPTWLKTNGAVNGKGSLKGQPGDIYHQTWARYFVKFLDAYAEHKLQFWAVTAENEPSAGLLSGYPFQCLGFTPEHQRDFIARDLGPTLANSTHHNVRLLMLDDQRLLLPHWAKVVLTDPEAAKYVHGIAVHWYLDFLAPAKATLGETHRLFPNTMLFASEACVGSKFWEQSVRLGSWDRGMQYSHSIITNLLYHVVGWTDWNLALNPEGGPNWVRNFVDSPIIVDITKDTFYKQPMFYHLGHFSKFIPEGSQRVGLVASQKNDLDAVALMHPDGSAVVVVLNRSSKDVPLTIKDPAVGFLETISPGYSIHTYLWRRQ
Regarding `CC1(C)CC(=O)C2=C(C1)NCN(CCCN1CCOCC1)C2`, the Potency was inactive: > 76.9 µM.
The figure for `COc1ccc(S(=O)(=O)N2CCCC2C(=O)Nn2cnnc2)cc1` (stereo not given) is inactive: > 76.9 µM; for `CCOc1cc(NC(=O)c2ccco2)c(OCC)cc1NC(=O)Cc1cccc(OC)c1` it is “inactive”.
Consider `O=C(NCC(c1cccnc1)N1CCN(c2ccccc2F)CC1)C1CCCCC1` (stereo not given), for which the Potency is inactive: > 76.9 µM.
The value for `COc1cccc(CNc2nn[nH]n2)c1OC` was inactive: > 76.9 µM; that for `COc1ccc(OCc2ccc(C(=O)O)cc2)cc1` was inactive: > 76.9 µM; that for `O=C(Nc1ccc2c(c1)OCCO2)c1cccnc1` was inactive: > 76.9 µM.
With `C/C(Cl)=C\CNC(C)c1ccccc1` (stereo not given), the Potency is inactive: > 76.9 µM.
The figure for `c1ccc(CSc2nnnn2-c2ccc3c(c2)OCCO3)nc1` is inactive: > 76.9 µM; for `CCCCOC(=O)n1ccc(C(=O)Nc2ccccc2OC)n1` it is inactive: > 76.9 µM; for `O=c1[nH]c(N2CCc3ccccc32)nc2c1CCCC2` it is inactive: > 76.9 µM.
For the compound `CCC(c1nnnn1CS(=O)(=O)c1ccc(C)cc1)N1CCN(c2nc3ccccc3s2)CC1` (stereo not given), the Potency was inactive: > 76.9 µM.
For `CCCC(=O)OCCn1c(Br)nc2c1c(=O)[nH]c(=O)n2C`, the Potency is inactive: > 76.9 µM.
For `COc1cc(NC(=O)c2ccco2)c(OC)cc1NC(=O)CCC(=O)Nc1cccc(C)c1C`, the Potency is inactive: > 76.9 µM.
The value for `CC(CP(=O)(O)O)NC(=O)Cc1ccccc1` (stereo not given) was inactive: > 76.9 µM; that for `CC(C)CC(=O)NC1(C(F)(F)F)C(=O)Nc2c1c(=O)[nH]c(=O)n2Cc1ccco1` (stereo not given) was inactive: > 76.9 µM.
Consider `O=C(O)CCCC(=O)Nc1ccc(N2CCCC2)cc1`, for which the Potency is inactive: > 76.9 µM.
Consider `O=c1c2ccccc2nc(SCc2cn3ccsc3n2)n1-c1ccc(F)cc1`, for which the Potency is inactive: > 76.9 µM.
Turning to `CCOC(=O)C1=C(C)N=C2SC(CC)C(=O)N2C1c1ccc(OC(C)=O)c(OCC)c1` (stereo not given), the Potency is inactive: > 76.9 µM.
The figure for `COCCNC(=S)c1ccc(OC)cc1` is inactive: > 76.9 µM; for `COc1ccc(CCNc2nc(C)nc3c2oc2ccccc23)cc1OC` it is inactive: > 76.9 µM.
The value for `CCN1C(=O)C(C(=O)NC(C)c2ccccc2)C2CC1(C)Oc1ccccc12` (stereo not given) was inactive: > 76.9 µM; that for `COc1ccc2c(c1)[nH]c1c(=O)n(CCN3CCCC3)cnc12` was inactive: > 76.9 µM; that for `Cn1c(=O)c2cn3ncccc3c2n(C)c1=O` was inactive: > 76.9 µM.
Turning to `O=C(NCc1ccc(F)cc1)c1noc2c1CCCCC2`, the Potency is inactive: > 76.9 µM.
With `CCCC(C)(C)NC(=O)CCCCC(=O)NC(C)(C)CCC`, the Potency was inactive: > 76.9 µM.
Turning to `COc1ccccc1NC(=O)CN1C(=O)C(C)Oc2ccccc21` (stereo not given), the Potency was inactive: > 76.9 µM.
Consider `CCn1c(SCC(=O)N2CCN(c3ccccc3)CC2)nnc1-c1cc2cc(Cl)ccc2o1`, for which the Potency is inactive: > 76.9 µM.
The figure for `Cc1nc(C)n(CC(O)COc2ccc3c(c2)CCC3)n1` (stereo not given) is inactive: > 76.9 µM.
Regarding `c1ccc(CNc2ncnc3c2ncn3C2CCCCO2)cc1` (stereo not given), the Potency was inactive: > 76.9 µM.
For the compound `Cc1nn(-c2cccc(Cl)c2)c2c1C(c1cccnc1)C(C#N)=C(N)O2` (stereo not given), the Potency is inactive: > 76.9 µM.
Turning to `CNC(=O)CSc1nnc(CCc2ccccc2)n1-c1ccccc1`, the Potency is inactive: > 76.9 µM.
In the case of `CC(C)C(=O)Nc1cccc(NC(=O)c2cccnc2)c1`, the Potency was inactive: > 76.9 µM.
On to `Cc1onc(-c2ccccc2)c1C(=O)Nc1cc(C(F)(F)F)ccc1N1CCOCC1`, for which the Potency was inactive: > 76.9 µM.
For the compound `CCCCNC(=O)CN1CCC2(O)CCCCC2C1c1ccccc1OC` (stereo not given), the Potency is inactive: > 76.9 µM.
In the case of `O=c1[nH]c2ccccc2c(=O)n1Cc1ccco1`, the Potency is inactive: > 76.9 µM.
For `O=C(NCc1ccco1)C1CC(=O)N(CCc2ccccc2)C1` (stereo not given), the Potency is inactive: > 76.9 µM.
As for `O=C(COc1ccc(Cl)cc1)Nc1nc(-c2cccs2)cs1`, the Potency was inactive: > 76.9 µM.
With `Cc1c(C(=O)N2CC(C)OC(C)C2)sc2nc(-c3ccccc3)cn12` (stereo not given), the Potency was inactive: > 76.9 µM.
Regarding `CCCCC(=O)Nc1cc2nn(-c3ccc(OC)cc3)nc2cc1C`, the Potency was inactive: > 76.9 µM.
With `Cc1ccc(-n2ncc3c(=O)n(CC(=O)NC4CCCC4)cnc32)cc1C`, the Potency was inactive: > 76.9 µM.
For the compound `COC(=O)c1c(C)n(-c2ccccc2)c2ccc(O)cc12`, the Potency is inactive: > 76.9 µM.
As to `COc1ccccc1N1CCN(C(=O)C(C)N(c2ccc(C)c(C)c2)S(C)(=O)=O)CC1` (stereo not given), the Potency is inactive: > 76.9 µM.
Turning to `COC(=O)c1ccccc1NC(=O)C1CCCC1`, the Potency was inactive: > 76.9 µM.
For the compound `COc1cc(NC(=O)CN(c2ccc(C)cc2)S(=O)(=O)c2c(C)n[nH]c2C)cc(OC)c1`, the Potency is inactive: > 76.9 µM.
The figure for `O=C(CCCCC(=O)NCc1cccs1)NCc1cccs1` is inactive: > 76.9 µM.
As for `O=C1c2ccccc2C(=O)N1CCCn1c(=O)oc2ccccc21`, the Potency is inactive: > 76.9 µM.
The value for `COC(=O)CC1C(=O)NC2CCCCC2N1C(=O)c1ccccc1` (stereo not given) was inactive: > 76.9 µM; that for `N#CC1=C(N)Oc2n[nH]c(-c3ccc(F)cc3)c2C1c1cccnc1` (stereo not given) was inactive: > 76.9 µM; that for `O=S(=O)(c1cccs1)N1CN(Cc2cccs2)c2nc3ccccc3nc21` was inactive: > 76.9 µM.
For `COc1cccc(NC(=O)C2CCN(c3ncccn3)CC2)c1`, the Potency is inactive: > 76.9 µM.
Take `CCCCOC(=O)c1ccc(NC(=O)c2cnccn2)cc1`: the Potency was inactive: > 76.9 µM.
The value for `COc1ccc(C(O)c2nccn2Cc2ccccc2)cc1` (stereo not given) was inactive: > 76.9 µM.
As to `O=C(CCC1CCCCC1=O)c1ccccc1` (stereo not given), the Potency was inactive: > 76.9 µM.
On to `CCn1cc(C(=O)O)c(=O)c2cc(OC)ccc21`, for which the Potency is inactive: > 76.9 µM.
The value for `CC(=NCc1ccco1)C1=C(O)c2ccccc2C1=O` was inactive: > 76.9 µM; that for `COc1ccc(Nc2ncnc3c2cnn3Cc2ccccc2)cc1OC` was inactive: > 76.9 µM; that for `COc1ccccc1N1CCN(C(CNS(=O)(=O)c2ccc(C)cc2)c2cccnc2)CC1` (stereo not given) was inactive: > 76.9 µM.
For `CCOc1ccc2nc(SCc3ccc(C(=O)OC)o3)[nH]c2c1`, the Potency is inactive: > 76.9 µM.
The value for `COC(=O)CSc1nc2sc3c(c2c(=O)n1-c1ccccc1)CCN(C)C3` was inactive: > 76.9 µM.
